The other results are listed elsewhere or left out. The full chains were built here from the parent and the listed change. Inactive controls read about 0.05.
B1: TEV protease; numbered along this chain (parent)
chain: MGESLFKGPRDYNPISSSICHLTNESDGHTTSLYGIGFGPFIITNKHLFRRNNGTLVVQSLHGVFKVKDTTTLQQHLVDGRDMIIIRMPKDFPPFPQKLKFREPQREERICLVTTNFQTKSMSSMVSDTSCTFPSGDGIFWKHWIQTKDGQCGSPLVSTRDGFIVGIHSASNFTNTNNYFTSVPKNFMELLTNQEAQQWVSGWRLNADSVLWGGHKVFMVKPEEPFQPVKEATQL
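Further: Bxb1 expression induced with 0.2% (w/v) L-rhamnose at OD600 near 0.5, cultures sampled hourly, flipped fraction per protease–substrate barcode pair counted by paired-end Illumina sequencing.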

Variants of: B1
Assay: raw area under fraction-flipped curve 0-4 h after induction (AUC4h, not background-subtracted), DNA-recorder readout of cleavage of the substrate (dimensionless); higher = more cleavage of the substrate by the protease variant
Conditions: temperature: 34 °C; time window: 0-4 h after rhamnose induction
With K7E the “area with substrate ENLYFIS” value was 0.0607, the “area with substrate ENLYFKS” value was 0.0653 and the “area with substrate ENLYFMS” value was 0.0751. The “area with substrate ENLYFRS” value was 0.0513 and the “area with substrate ENLYFTS” value was 0.0593. In the case of Y34W, the “area with substrate ENLYFIS” value is reported as 0.0664, the “area with substrate ENLYFNS” value is reported as 0.0853 and the “area with substrate ENLYFSS” value is reported as 0.0487. The “area with substrate ENLYFVS” value was 0.0501. In the case of V200R, the “area with substrate ENLYFYS” value is reported as 0.0449. In the case of F173Q, the “area with substrate ENLYFKS” value is reported as 0.0692, the “area with substrate ENLYFLS” value is reported as 0.0544 and the “area with substrate ENLYFMS” value is reported as 0.0738. For the same variant, the “area with substrate ENLYFNS” value was 0.0608, the “area with substrate ENLYFPS” value was 0.0702 and the “area with substrate ENLYFSS” value was 0.0651. With G35N the “area with substrate ENLYFLS” value was 0.0089. In the case of N193D, the “area with substrate ENLYFIS” value is reported as 0.0471, the “area with substrate ENLYFMS” value is reported as 0.0874 and the “area with substrate ENLYFNS” value is reported as 0.0641. The “area with substrate ENLYFVS” value was 0.0345. With T114D the “area with substrate ENLYFIS” value was 0.056, the “area with substrate ENLYFMS” value was 0.0572 and the “area with substrate ENLYFNS” value was 0.0687. For the same variant, the “area with substrate ENLYFPS” value was 0.0508, the “area with substrate ENLYFTS” value was 0.048 and the “area with substrate ENLYFYS” value was 0.052. For R87K, the “area with substrate ENLYFHS” value was 0.0684. For D161P, the “area with substrate ENLYFIS” value was 0.0515, the “area with substrate ENLYFKS” value was 0.0307 and the “area with substrate ENLYFMS” value was 0.0518. For the same variant, the “area with substrate ENLYFPS” value was 0.0415, the “area with substrate ENLYFTS” value was 0.0228 and the “area with substrate ENLYFVS” value was 0.0081. In the case of T174V, the “area with substrate ENLYFKS” value is reported as 0.0524, the “area with substrate ENLYFMS” value is reported as 0.0606 and the “area with substrate ENLYFNS” value is reported as 0.0626. The “area with substrate ENLYFPS” value was 0.0701. For E223G, the “area with substrate ENLYFIS” value was 0.0654, the “area with substrate ENLYFPS” value was 0.0671 and the “area with substrate ENLYFTS” value was 0.0689. The “area with substrate ENLYFVS” value was 0.0581. In the case of Q97K, the “area with substrate ENLYFIS” value is reported as 0.0536. For S171T, the “area with substrate ENLYFIS” value was 0.0508, the “area with substrate ENLYFKS” value was 0.0476 and the “area with substrate ENLYFMS” value was 0.0482. For the same variant, the “area with substrate ENLYFSS” value was 0.0642, the “area with substrate ENLYFTS” value was 0.0037 and the “area with substrate ENLYFWS” value was 0.0543.

Reference: the supplement of paper PMC12217912
